Measurements published in article PMC4336329 (PLoS ONE, 2015).
Hit rate of the full screen: of about 310,000 compounds, about 2,200 (0.71%) showed an effect of 50% or more. The effect is printed as a negative number. Some of the results follow.

Biological target: human ether-à-go-go-related gene (hERG) potassium channel (human, UniProt Q12809)
Test: primary screen, population patch clamp on CHO cells stably expressing hERG

human ether-à-go-go-related gene (hERG) potassium channel, sequence (Q12809 whole entry, looked up): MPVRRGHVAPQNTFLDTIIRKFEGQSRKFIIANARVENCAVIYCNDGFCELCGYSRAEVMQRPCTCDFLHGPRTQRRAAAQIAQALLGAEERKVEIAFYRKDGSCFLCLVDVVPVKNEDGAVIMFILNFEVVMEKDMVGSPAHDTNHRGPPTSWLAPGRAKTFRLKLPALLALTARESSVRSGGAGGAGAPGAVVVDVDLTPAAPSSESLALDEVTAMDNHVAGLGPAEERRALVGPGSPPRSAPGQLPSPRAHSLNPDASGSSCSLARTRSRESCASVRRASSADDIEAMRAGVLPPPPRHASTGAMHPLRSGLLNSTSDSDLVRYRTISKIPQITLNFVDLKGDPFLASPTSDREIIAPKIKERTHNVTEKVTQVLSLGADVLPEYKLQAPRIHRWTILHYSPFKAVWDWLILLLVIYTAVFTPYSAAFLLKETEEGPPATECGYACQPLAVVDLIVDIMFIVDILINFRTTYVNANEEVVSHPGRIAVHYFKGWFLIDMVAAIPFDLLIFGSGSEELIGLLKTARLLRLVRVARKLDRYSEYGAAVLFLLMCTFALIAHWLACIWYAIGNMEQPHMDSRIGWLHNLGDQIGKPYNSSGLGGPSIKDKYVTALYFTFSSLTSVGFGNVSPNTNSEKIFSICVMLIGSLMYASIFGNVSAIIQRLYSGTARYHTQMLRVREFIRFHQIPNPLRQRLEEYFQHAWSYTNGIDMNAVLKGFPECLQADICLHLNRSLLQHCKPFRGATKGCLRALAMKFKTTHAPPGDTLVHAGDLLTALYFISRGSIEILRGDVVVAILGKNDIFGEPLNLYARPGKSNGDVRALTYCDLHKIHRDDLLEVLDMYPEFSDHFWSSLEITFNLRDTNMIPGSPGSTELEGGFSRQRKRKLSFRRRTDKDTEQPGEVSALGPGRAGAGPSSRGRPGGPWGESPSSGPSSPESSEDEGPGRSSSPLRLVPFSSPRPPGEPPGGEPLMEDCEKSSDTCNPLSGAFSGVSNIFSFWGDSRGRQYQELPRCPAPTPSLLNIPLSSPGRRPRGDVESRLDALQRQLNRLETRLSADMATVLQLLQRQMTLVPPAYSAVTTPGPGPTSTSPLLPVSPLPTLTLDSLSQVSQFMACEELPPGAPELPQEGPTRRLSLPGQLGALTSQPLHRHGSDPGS

| Compound | hERG current change (%, negative = inhibition) at 1uM [%] |
| --- | --- |
| Cc1ccccc1NC(=O)Cc1nnc(NC(=O)Nc2ccccc2F)s1 | 15.2 |
| Cc1cccc(-n2cc(CN3CCCN(C=O)CC3)c(-c3cccc(F)c3)n2)c1 | 13.6 |
| CCc1ccc(-c2cc(C)no2)cc1S(=O)(=O)N1CCCN(Cc2ccc(F)cc2)C1 | 12.1 |
| O=C(CN1c2cccc3cccc(c23)S1(=O)=O)N1CCOCC1 | 12.3 |
| NC1=NC(=O)/C(=C/c2ccccc2OS(=O)(=O)c2ccccc2)S1 | 5.18 |
| NC(=O)C1CC(=O)N(c2ccc(OCC(=O)Nc3ccc(Cl)cc3)cc2)C1 (stereo not shown) | 17.7 |
| CCc1ccccc1NC(=O)CN(C1CCCCC1)S(C)(=O)=O | 11.4 |
| CCOC(=O)C(O)(CCC(O)(C(=O)OCC)C(=O)OCC)C(=O)OCC | 7.97 |
| Cc1cccc(-n2ncc3c2CCCC3NC(=O)CCc2ccncc2)c1C (stereo not shown) | 10.5 |
| Cc1ccc(S(=O)(=O)N2CCCCC2C(=O)N2CCN(c3ccccc3F)CC2)cc1 (stereo not shown) | 13.1 |
| Cn1c(CCCNC(=O)c2ccccc2)nc2ccccc21 | 8.14 |
| O=C(CSc1nncs1)NCc1ccc(F)cc1 | 30.2 |
| CNC(=S)n1cnc(N)n1 | 10.6 |
| Cc1ccc(Nc2nc(-c3ccc(O)cc3O)cs2)nc1 | 11.1 |
| CCOC(=O)C(=CNc1ccc(O)c(C(=O)OC)c1)C(=O)OCC | 11.9 |
| C=CCN1/C(=C(\C#N)C2=NS(=O)(=O)c3ccccc32)N(C)c2ccccc21 | -5.66 |
| CC(=O)c1cccc(NC(=O)CCS(=O)(=O)c2cc3c(cc2C)NC(=O)CO3)c1 | 11.2 |
| CCN(C(=O)CCN1C(=O)/C(=C/c2ccccc2)SC1=S)C1CCS(=O)(=O)C1 (stereo not shown) | 9.74 |
| Cc1cccc(C)c1NC(=O)CSc1nc2[nH]c(=O)cc(O)c2s1 | 4.15 |
| Cc1cc(C)[n+]2[nH]c(N)c(N=Nc3ccccc3)c2n1.[Cl-] | 0.859 |
| Cc1ccc(C(C(=O)NCc2ccco2)N(Cc2ccco2)C(=O)CNC(=O)c2ccco2)cc1 (stereo not shown) | 6.16 |
| OCCC1CN(C2CCSCC2)CCN1C1CCCC1 (stereo not shown) | 2.45 |

| Compound | hERG current change (%, negative = inhibition) at 1uM [%] |
| --- | --- |
| CN1CCN(C(=S)NC(=O)c2ccccc2Cl)CC1 | 12.8 |
| CSc1cccc(N2CC(C(=O)N(CC(C)C)c3c(N)n(Cc4ccccc4)c(=O)[nH]c3=O)CC2=O)c1 (stereo not shown) | -5.25 |
| CC(C)(C)c1nc(NCC2CCCO2)c2nnn(Cc3ccccc3)c2n1 (stereo not shown) | 13.9 |
| CN(c1ccc(OCC(=O)OCC(=O)Nc2ccc(Br)cc2)cc1)S(=O)(=O)c1cccs1 | 13.8 |
| CCC(=O)Nc1ccc2c(c1)N(C(C)=O)c1ccccc1CC2 | 12 |
| C[C@H](NC(=O)C1CC(=O)N(c2ccc3c(c2)OCCO3)C1)C(=O)N1CCCCC1 (stereo partly shown) | 14 |
| COc1ccc(CCNC(=O)CN2C(=O)C(=O)N(C3CCCC3)C2=O)cc1OC | 3.16 |
| Cc1ccccc1N(CC(=O)NC(C)(C)C)C(=O)CCC(=O)Nc1nccs1 | 13 |
| CCOC(=O)COc1c(-c2ccc(OC)cc2)oc2ccccc2c1=O | 9.81 |
| CCCSc1nsc(NC(=O)CC)n1 | -1.88 |
| Cc1cc(C)nc(NC2=NCC(=O)N2CCc2c[nH]c3ccccc23)n1 | 8.81 |
| Cc1ccccc1OCC(=O)Nc1ccc([N+](=O)[O-])cc1 | 10.5 |
| O=C(Cc1ccccc1F)NCC1(N2CCOCC2)CCCCC1 | 2.75 |
| C#CCOCCOCCOCCNc1nc(N2CCN(C(=O)[C@H]([C@@H](C)CC)n3cc(CCC(=O)O)nn3)CC2)nc(N2CCN(C(=O)[C@H](C)n3cc(CCC[NH+]=C(N)N)nn3)CC2)n1.[Cl-] | 12.9 |
| COc1ccc(NC(=O)CSc2nnc(-c3cc(C)[nH]n3)n2N)cc1OC | 14.4 |
| CCOc1ccc(C(=O)Nc2ccc(S(=O)(=O)NCC3CCCO3)cc2)cc1OCC (stereo not shown) | 7.55 |
| Cc1cc(NC(=O)CN2C(=O)NC(C)(CCc3ccccc3)C2=O)no1 (stereo not shown) | 7.44 |
| COc1cc2cc(CN(CCc3cccc(C)c3)C(=S)NCCCN(C)C)c(=O)[nH]c2cc1OC | 7.6 |
| O=C1OC(c2ccccc2)=C/C1=C\N1CCOCC1 | 7.49 |
| CCOC(=O)c1c(NCc2ccccc2)n[nH]c1C | 4.96 |
| COc1cc2c(cc1OC)CN(C(=O)CC1CC3CCC1C3)CC2 (stereo not shown) | 2.13 |
| O=C(NC1CCCCC1)C(c1ccccc1F)N(C(=O)c1csnn1)C1CCCC1 (stereo not shown) | -0.516 |

| Compound | hERG current change (%, negative = inhibition) at 1uM [%] |
| --- | --- |
| CN(CCN1CCOCC1)Cc1nc(-c2ccc(Cl)cc2)no1 | 0.241 |
| Cc1ccc(S(=O)(=O)N2CCCCC2)cc1NC(=O)CCc1nc2ccccc2c(=O)[nH]1 | 1.86 |
| COc1ccccc1Sc1nc(-c2ccccn2)ncc1OC | 16.6 |
| COc1cccc(CN(C)C(=O)c2cc(S(=O)(=O)NC3CCCCC3)ccc2C)c1OC | 7.19 |
| COc1ccc(C(=O)Nc2ccc(C(=O)O)cc2NC(=O)c2ccc(OC)cc2)cc1 | 15.2 |
| Cc1cc(=O)[nH]c(N/N=C/c2ccc(C)o2)n1 | 5.46 |
| CC(C)N1CCc2c(sc(N)c2C#N)C1 | 1.48 |
| Cc1cccc(-c2nc(CN3CCCC(C(=O)NC4CCC(C)CC4)C3)c(C)o2)c1 (stereo not shown) | -10.2 |
| Cc1ccc2nc(NC(=O)CCn3c(=O)sc4ccccc43)sc2c1 | 16 |
| CN(C)C(=O)C(Sc1ccc(S(=O)(=O)N2CCCC2)cn1)c1ccccc1 (stereo not shown) | 5.86 |
| CCCCOc1ccc(/C(O)=C(\C#N)c2nc3ccccc3[nH]2)cc1 | 0.173 |
| O=C(NNC(=S)NCc1ccccc1)c1cccc([N+](=O)[O-])c1 | 10.3 |
| O=C(Cn1cc([N+](=O)[O-])cn1)N1CCN(Cc2ccc3c(c2)OCO3)CC1 | 3.77 |
| Cc1ccc2nc(-c3ccccn3)[nH]c2c1.Cl | 13.1 |
| N#Cc1c(-c2ccccc2)nc(SCc2cccc(Cl)c2)[nH]c1=O | 3.79 |
| COc1ccc(C(=O)Nc2ccc3nc(N4CCCCC4)cc(C)c3c2)c(OC)c1 | 14.6 |
| CCN1CCN(c2ccc(NC(=O)c3cc4ccccc4cc3OC)cc2C)CC1 | 3.06 |
| O=C(Nc1ncccc1Cl)c1ccccc1F | 10.3 |
| Clc1cccc(OCCN2CCOCC2)c1.O=C(O)C(=O)O | 5.84 |
| COc1cc(C(C2=C(O)CC(C)(C)CC2=O)C2C(=O)CC(C)(C)CC2=O)cc(OC)c1OC (stereo not shown) | 25 |
| COC(=O)C/C=C/[C@@H](C)[C@@H](/C=N/O[C@H](C)c1cn([C@@H]2COC[C@H]2O)nn1)NS(=O)(=O)c1ccc(C)cc1 | 7.67 |
| O=C(COc1ccc(Br)cc1)Nc1nnc(C2CC2)s1 | 3.65 |

| Compound | hERG current change (%, negative = inhibition) at 1uM [%] |
| --- | --- |
| O=C1NN(c2ccccc2)C(=O)/C1=C/c1ccc(-c2cccc(C(=O)O)c2)o1 | 9.26 |
| Cc1ccccc1C1=NCC(=O)N(CC(=O)N2CCCCC2)c2sc(C)c(C)c21 | 2.96 |
| CCO[C@H]1OC(C(=O)N2CCN(Cc3ccccc3)CC2)=C[C@@H](c2cn(C(C)=O)c3ccccc23)[C@@H]1CCCO | -4.49 |
| C[N+](C)(C)CC(=O)N1CCN(c2ccc3ccccc3n2)CC1.[Cl-] | 14 |
| CCn1ncc(Br)c1C(=O)Nc1ccc(F)c([N+](=O)[O-])c1 | -1.76 |
| CC(OC(=O)CNC(=O)C12CC3CC(CC(C3)C1)C2)C(=O)Nc1ccc(S(N)(=O)=O)cc1 (stereo not shown) | 13 |
| Cc1ccc(Nc2nc(N)nc(CSc3nccn3C)n2)c(C)c1 | 14.9 |
| Cc1cc(OCCn2cnc3ccccc3c2=O)cc(C(C)C)c1 | 5.76 |
| CC(=O)Nc1ccc(S(=O)(=O)N2CCN=C2SCc2ccc(C)cc2)cc1 | 10.4 |
| CCCCCn1c(SCC(=O)OCC)nc2cc(C(=O)NCc3ccco3)ccc2c1=O | 12.8 |
| CCCn1c2ccccc2c2cnn(CC(=O)NCCCN3CCCCC3)c(=O)c21 | 1.47 |
| Cc1ccc(C2=C(c3ccc([N+](=O)[O-])cc3)C(=O)OC2)cc1C | -14.1 |
| c1ccc(Nc2ccccc2)cc1 | 7.9 |
| CC(=O)c1cccc(N=Nc2c(-c3ccccc3)[nH]n(-c3ccccc3)c2=O)c1 | 15.6 |
| COc1ccc(OC)c(CCNC(=O)Cn2ccc3cc(S(=O)(=O)N4CCCC4)ccc32)c1 | 19 |
| Cc1ccc(-c2ccc(=O)n(CCC(=O)N3CCN(c4cccc(C)c4)C(C)C3)n2)cc1 (stereo not shown) | 8.76 |
| CCCCOc1ccc(N(CC(=O)NC(C)(C)C)C(=O)CCC(=O)Nc2nccs2)cc1 | 4.85 |
| Cc1ccccc1C(=O)NC(=S)NCCC1=CCCCC1 | 11.7 |
| CCN(CC(=O)Nc1ccc2c(c1)OCCO2)c1ccc(S(=O)(=O)N2CCOCC2)cn1 | 14.2 |
